PubChem BioAssay AID624418 (National Center for Advancing Translational Sciences (NCATS), 2012)
Out of some 410,000 compounds screened, about 530 (0.13%) were called active. The shares of active, inactive and inconclusive entries below differ from those in the screen. Calls follow the shape of the dose curve; as a rule, active = well fitted inhibition curve with a large enough effect; inconclusive = small, poorly fitted or top-dose-only effect, or another doubt; inactive = no such curve, though single readings can be large or run the other way. Where the call is inconclusive, the potency comes from a doubtful curve fit.

assay: qHTS of GLP-1 Receptor Inverse Agonists: Cytotox Screen; conditions: HEK293 cAMP-luciferase reporter cells, luminescence, 24 h; series mostly up to 38.3 µM
Procedure, shortened: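 MLSMR compounds, 24 hr on cells at 37 deg C/5% CO2; luminescence after luciferase reagent (12 min RT). Inhibition counted as the undesired cytotoxic outcome.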
Potency is read from the fitted curve at half-maximal effect.

Row | Structure (SMILES) | Potency
1 | Cn1c(=O)n(Cc2ccccc2)c(=O)c2c1nc1n2CCN1c1ccccc1 | inconclusive: 28.2 µM [inhibitor, single point]
2 | CC1CCC/C(=C\Nc2ccc3c(c2)OCO3)C1=O (stereo not drawn) | inconclusive: 11.2 µM [inhibitor, single point]
3 | C(#Cc1ccccc1)Cn1nnc2ccccc21 | inactive
4 | O=C(CCCN1C(=O)/C(=C/c2ccccc2Cl)SC1=S)N1CCCC1 | inconclusive: 12.6 µM [inhibitor, single point]
5 | CCc1nnc(NC(=O)CSc2ccc(-c3nc4ccccc4[nH]3)cn2)s1 | inconclusive: 0.501 µM [inhibitor, full curve, poor fit]
6 | Cc1cccn2cc(-c3cccc(NC(=O)C(C)C)c3)nc12 | inactive
7 | COC(=O)/C(C(C)=O)=C(/C=C/C=C/N(C)C)N(C)C | inconclusive: 20 µM [inhibitor, single point]
8 | COc1ccccc1NC(=O)C1=C(C)Nc2nc(SCc3ccccc3)nn2C1c1cccc(O)c1 (stereo not drawn) | inactive
9 | CSc1nc2ccc3nc(NC(=O)c4ccccc4)sc3c2s1 | inactive
10 | O=C(Nc1nnc(C2=COCCO2)o1)c1cccc([N+](=O)[O-])c1 | inactive
11 | O=C(Cn1ncc(Cl)c(Cl)c1=O)N1CCc2ccccc21 | active: 5.62 µM
12 | FC(F)(F)c1cccc(NC(=S)Nc2cccc(NC(=S)Nc3cccc(C(F)(F)F)c3)n2)c1 | inconclusive: 3.55 µM [inhibitor, full curve]
13 | CCOC(=O)Cn1c(=N)n(CCOc2ccc(F)cc2)c2ccccc21 | inactive
14 | COc1cccc(/C=N/Nc2nc(C)cc(=O)[nH]2)c1OC | inconclusive: 28.2 µM [inhibitor, single point]
15 | CC(=O)c1cccc(NC(=S)NC(=O)c2ccccc2)c1 | inactive
16 | Cc1oc2c(CN3CCCC3)c(O)ccc2c(=O)c1-c1ccc(Br)cc1 | inconclusive: 28.2 µM [inhibitor, single point]
17 | Nc1c(Cl)cc(N=Nc2ccccc2)cc1Cl | inconclusive: 31.6 µM [inhibitor, single point]
18 | Cc1ccccc1C(=O)N1CCN(c2ccc(NC(=O)c3ccco3)cc2Cl)CC1 | inconclusive: 28.2 µM [inhibitor, single point]
19 | O=C(OCc1ccccc1)N(CCCCN(CCCNCc1ccccc1)C(=O)OCc1ccccc1)CCCNCc1ccccc1 | inconclusive: 8.91 µM [inhibitor, partial curve, poor fit]
20 | C/C(=N\NC(=S)NC(C)C)c1cccc([N+](=O)[O-])c1 | inconclusive: 28.2 µM [inhibitor, single point]
21 | COc1cc(C(=O)Nc2nc3ccccc3[nH]2)ccc1OC(F)F | inconclusive: 28.2 µM [inhibitor, single point]
22 | CN(C)CCCNC(=S)NCC(c1ccc(Cl)cc1Cl)c1c[nH]c2ccccc12 (stereo not drawn) | inconclusive: 28.2 µM [inhibitor, single point]

Row | Structure (SMILES) | Potency
23 | CCOC(=O)c1ccc(NC(=O)Cn2cc(C(=O)C3CC3)c3ccccc32)cc1 | inactive
24 | C=CCc1cccc2cc(-c3nc4ccc(C)cc4[nH]3)c(=O)oc12 | inactive
25 | Cc1ccc(S(=O)(=O)Nc2ccc(O)c3ncccc23)cc1 | inconclusive: 7.94 µM [inhibitor, partial curve, poor fit]
26 | COc1cccc(/C=C2\SC(=S)N(NS(=O)(=O)c3ccccc3)C2=O)c1OC | inconclusive: 10 µM [inhibitor, partial curve, poor fit]
27 | Cc1cc(C)c2nc(N(CCCN(C)C)C(=O)c3ccc(S(=O)(=O)N4CCCCCC4)cc3)sc2c1 | inconclusive: 28.2 µM [inhibitor, single point]
28 | S=C(Nc1cc(Cl)cc(Cl)c1)N1CCCC1 | inactive
29 | Cc1ccccc1Nc1c(-c2c(F)cccc2Cl)nc2ccc(Br)cn12 | inactive
30 | COc1ccc2ccccc2c1CNC(C)CCc1ccccc1 (stereo not drawn) | inconclusive: 28.2 µM [inhibitor, single point]
31 | Brc1ccc(N/N=C(/N=Nc2nn[nH]n2)c2ccccc2)cc1 | inconclusive: 5.62 µM [inhibitor, partial curve, poor fit]
32 | CC(=O)OC[C@H]1O[C@@H](Sc2cccc3cccnc23)[C@H](OC(C)=O)[C@@H](OC(C)=O)[C@H]1OC(C)=O | inconclusive: 25.1 µM [inhibitor, single point]
33 | Cc1ccc(-n2cc(-c3ccccc3)c3c(=O)[nH]cnc32)cc1 | inactive
34 | O=C(NC(=S)Nc1cccc(Cl)c1Cl)C1CC1 | inconclusive: 11.2 µM [inhibitor, single point]
35 | CCOC(=O)c1c(NC(=O)C2=C(C)NC(=S)NC2c2ccc(C)cc2)sc(C)c1C (stereo not drawn) | inconclusive: 5.62 µM [inhibitor, full curve]
36 | Cc1ccc(-c2n[nH]c(=S)n2/N=C/c2cccn2C)cc1 | inconclusive: 11.2 µM [inhibitor, single point]
37 | C(=N\NC1=Nc2cccc3cccc1c23)/c1ccccn1 | inconclusive: 1 µM [inhibitor, full curve, poor fit]
38 | COc1ccc(NS(=O)(=O)c2ccc3nc(COc4cccc5ccccc45)[nH]c3c2)cc1 | inconclusive: 14.1 µM [inhibitor, single point]
39 | CCOC(=O)c1sc(NC(=O)CN2C(=O)NC3(CC(C)CC(C)(C)C3)C2=O)cc1C (stereo not drawn) | inconclusive: 10 µM [inhibitor, partial curve]
40 | Cc1cccc(CS(=O)(=O)c2ncc(Cl)c(C(=O)Nc3nnc(C(C)C)s3)n2)c1 | inconclusive: 28.2 µM [inhibitor, single point]
41 | Cc1cccc(NC(=O)c2nc[nH]c2C(=O)NCC(=O)OCc2ccccc2)c1 | inconclusive: 12.6 µM [inhibitor, single point]
42 | CC(C)c1cccc(-c2csc(C(O)c3cccc(Cl)c3)n2)c1 (stereo not drawn) | inconclusive: 28.2 µM [inhibitor, single point]
43 | CC(C)c1ccc(NC(=O)CCCN2C(=S)NC(C)(C)CC2C)cc1 (stereo not drawn) | inconclusive: 11.2 µM [inhibitor, single point]
